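1) Cells in 96-well plates. 2) Compound, 48 h, 5 concentrations. 3) Linear interpolation between surrounding doses. 4) Unreached endpoint = highest concentration. GI50 = concentration required for 50% inhibition of growth. TGI marks complete inhibition of growth.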
The molecules below were run on NCI-H322M lung (assay: NCI-60 cell line screen, 48 h).

Compared with `CN1C(=O)C(CC(=O)O)NC1=S` (stereo not drawn), `C=C1C(=O)OC2C=C(CCC(C)=O)C(C)C(OC(C)=O)CC12` (stereo not drawn) is lower in TGI: over 100 µM for the first, 37.7 µM for the second.

`O=C(c1ccccc1)N1OCCC1Nc1ccc(Br)cc1` (stereo not drawn) and `O=C(c1ccccc1)C(Br)C(Br)c1cccc([N+](=O)[O-])c1` (stereo not drawn) cannot be ordered by TGI: over 10 µM for the first, 28.9 µM for the second.

Compared with `N#Cc1ccc(C(=O)/C=C/c2ccc(O)c(O)c2)cc1`, `C[n+]1c2ccccc2c(NC(CS)C(=O)O)c2ccccc21` (stereo not drawn) is higher in TGI: 29.8 µM for the first, over 100 µM for the second.

`Nc1[nH]c(=S)c2c(N)n[nH]c2c1C(=O)Nc1ccccc1` and `COc1ccc(C(=O)O)c2c(=O)c3cccnc3[nH]c12` cannot be ordered by TGI: over 100 µM for the first, over 100 µM for the second.

`O=C(NCCCCCCNC(=O)OCCSCCn1cc(C(=O)NC(=O)OCc2ccccc2)c(=O)[nH]c1=O)OCCSCCn1cc(C(=O)NC(=O)OCc2ccccc2)c(=O)[nH]c1=O` and `CCCCN(Cc1ccccc1)C(=NC#N)N(Cc1ccccc1)Cc1ccccc1` cannot be ordered by TGI: over 100 µM for the first, over 100 µM for the second.

Going from `COc1ccc2c(c1)-c1[nH]c3ccc(OC)cc3c1CC2` to `Cc1ccc2c(c1)CC1(Cc3c(C)cccc3C1=O)C2=O` (stereo not drawn), the TGI rises from 31.1 µM to over 100 µM.

`O=C(NC1C=Nc2ccc([N+](=O)[O-])cc2NC1=O)c1cc(Cl)cc([N+](=O)[O-])c1` (stereo not drawn) and `CC1=NN(C(=O)CC(=O)NC(=O)CC(=O)Nc2ccccc2F)C(=O)C1N=Nc1ccc([N+](=O)[O-])cc1` (stereo not drawn) cannot be ordered by TGI: over 100 µM for the first, over 100 µM for the second.

`COc1cccc2c1C(=O)c1c(O)c3c(c(O)c1C2=O)C[C@@](O)(C(=O)CO)C[C@@H]3O[C@H]1C[C@H](N)[C@@H](O)[C@H](C)O1` and `COC(=O)c1cc2cc3c(c(O)c2c(=O)o1)O[C@@]1(Oc2c(O)c4c(c(O)c2[C@H]1OC1CC(OC)C(O)C(C)O1)C(=O)C=C(OC)C4=O)[C@H](O)C3` (stereo partly drawn) are within 1.5-fold of each other in TGI: 10 µM for the first, 12.8 µM for the second.

`CC(C)=c1sc(=C(C)C)c2c1=NC(C)(C)N=2` and `COC(=O)NN=C1C(C)(C)C(=O)C1(C)C` cannot be ordered by TGI: over 100 µM for the first, over 100 µM for the second.

`CC1(C)C/C(=N/O)c2c(nc3ccc4ccccc4c3c2-c2ccc(Cl)cc2)C1` and `c1ccc2c(c1)cc1c3[nH]c4ccccc4c3ccn21` cannot be ordered by TGI: over 100 µM for the first, over 10 µM for the second.

Going from `COc1ccc(OC2OC(COC(c3ccccc3)(c3ccc(OC)cc3)c3ccc(OC)cc3)C(O)C(O)C2O)cc1` (stereo not drawn) to `COc1cc2c(cc1OCCCCCOc1ccc(-n3c(C)nc4ccccc4c3=O)cc1)N=C[C@@H]1CCCN1C2=O`, the TGI falls from 19.3 µM to 1.43 µM (13-fold).

`CC(O)c1ccc[n+](Cc2ccccc2)c1` (stereo not drawn) and `CC(C)C(Sc1nc(-c2ccccc2)c(-c2ccccc2)[nH]1)C(=O)NN` (stereo not drawn) cannot be ordered by TGI: over 400 µM for the first, over 100 µM for the second.

First: Nc1ncnc2c1ncn2C1OC(CO)C(O)C(O)C1O (stereo not drawn)
Second: CCOc1cc2c(cc1O)CC[C@@H]1[C@@H]2CC[C@]2(C)C(N)CC[C@@H]12 (stereo partly drawn)
The TGI of the first is higher: over 100 µM for the first, 21.2 µM for the second.

Compared with `O=P(CCCCP(=O)(c1ccccc1)c1ccccc1)(c1ccccc1)c1ccccc1.[Cl][Sn]([Cl])([c]1ccccc1)[c]1ccccc1`, `Cc1c2c(Cl)c3c(c(Cl)c2c(C)c2c(Cl)c4c(c(Cl)c12)C(c1ccccc1)(c1ccccc1)C4(c1ccccc1)c1ccccc1)C(c1ccccc1)(c1ccccc1)C3(c1ccccc1)c1ccccc1` is higher in TGI: 21.2 µM for the first, over 100 µM for the second.

`CCCCCCCCCCCCCCCCOCC(CP(=O)([O-])OCC[n+]1ccccc1)OC` (stereo not drawn) and `CCCCCCCCCCCCOC1C(C(COC2OC(C3COC(C)(C)O3)C3OC(C)(C)OC23)NC(=O)NS(=O)(=O)c2ccccc2)OC2OC(C)(C)OC21` (stereo not drawn) are within 1.5-fold of each other in TGI: 33.5 µM for the first, 22.9 µM for the second.

`NC(CCC(=O)NC(CSC(=O)N(O)c1ccccc1)C(=O)NCC(=O)O)C(=O)O` (stereo not drawn) and `O=C(O)CCC(NC(=O)c1ccccc1)C(=O)O` (stereo not drawn) cannot be ordered by TGI: over 1000 µM for the first, over 100 µM for the second.

`CCN(C(C)=O)c1cnc(/C=N/NC(N)=S)c2ccccc12` and `Cc1cc2[nH]c(=O)c3c4ccccc4cn3c2cc1C` are within 1.5-fold of each other in TGI: 30.9 µM for the first, 30.4 µM for the second.

`Cc1cc2nc(N3C(=O)/C(=C/c4ccccc4S)N=C3c3ccccc3)sc2cc1C` and `COc1cc(/C=C2\C(=O)N(c3ccccc3Cl)C(c3ccccc3)S2(=O)=O)cc(OC)c1OC` (stereo not drawn) cannot be ordered by TGI: over 100 µM for the first, over 100 µM for the second.

`COC(=O)C1(C(=O)OC)Cc2ccc(C)cc2C2=C1C(=O)c1ccccc1C2=O` and `O=S(Nc1ccccc1)c1ccc(Cl)c(Cl)c1` (stereo not drawn) cannot be ordered by TGI: over 100 µM for the first, over 100 µM for the second.

`CC1=C(C(=O)N(C(C)C)C(C)C)CC(C(=O)N(C(C)C)C(C)C)=C(C)N1` and `COC(=O)[C@]12CC=C3O[C@@H]4OC5(CCCCC5)O[C@@H]4C3[C@@H]1C(=O)CCC2=O` (stereo partly drawn) cannot be ordered by TGI: over 100 µM for the first, over 100 µM for the second.

`CC(C)(C)NCC(O)c1ccc(O)c(CO)n1` (stereo not drawn) and `Oc1ccccc1CNCC12CC3CC(CC(C3)C1)C2` cannot be ordered by TGI: over 100 µM for the first, over 100 µM for the second.

`CC1(C)OC(CP(c2ccccc2)c2ccccc2)C(CP(c2ccccc2)c2ccccc2)O1` (stereo not drawn) and `CCN1C(=O)N(c2ccccc2)C2NC(=S)N(/N=C/C=C/c3ccccc3)C21` (stereo not drawn) cannot be ordered by TGI: over 100 µM for the first, over 100 µM for the second.

`S=c1ssc(Oc2ccccc2)c1Cl` and `Nc1ccc(CCSSCCc2ccc(N)cc2)cc1` are within 1.5-fold of each other in TGI: 30 µM for the first, 28.1 µM for the second.

`Nc1nc2n[nH]nc2c(=O)[nH]1` and `O=C1C=CC2(O)OCCN(CCO)C2=C1` (stereo not drawn) (tested in a mixture with another compound) cannot be ordered by TGI: over 100 µM for the first, over 100 µM for the second.

Molecule `CN(C)C=[N+]=[N-]` has a TGI of over 100 µM.

Going from `COc1cccc2c1C(=O)c1c(O)c3c(c(O)c1C2=O)C[C@@](O)(C(=O)CO)C[C@@H]3O[C@H]1C[C@H](N)[C@@H](O)[C@H](C)O1` to `COc1cc2c(cc1OCCCCCOc1ccc(-n3c(C)nc4ccccc4c3=O)cc1)N=C[C@@H]1CCCN1C2=O`, the GI50 falls from 1.42 µM to 0.374 µM (3.8-fold).

Compared with `O=P(CCCCP(=O)(c1ccccc1)c1ccccc1)(c1ccccc1)c1ccccc1.[Cl][Sn]([Cl])([c]1ccccc1)[c]1ccccc1`, `CCN1C(=O)N(c2ccccc2)C2NC(=S)N(/N=C/C=C/c3ccccc3)C21` (stereo not drawn) is 11-fold lower in GI50: 7.65 µM for the first, 0.717 µM for the second.

Going from `CCCCCCCCCCCCOC1C(C(COC2OC(C3COC(C)(C)O3)C3OC(C)(C)OC23)NC(=O)NS(=O)(=O)c2ccccc2)OC2OC(C)(C)OC21` (stereo not drawn) to `Oc1ccccc1CNCC12CC3CC(CC(C3)C1)C2`, the GI50 rises from 7.55 µM to 44 µM (5.8-fold).

`S=c1ssc(Oc2ccccc2)c1Cl` and `Cc1cc2[nH]c(=O)c3c4ccccc4cn3c2cc1C` are within 1.5-fold of each other in GI50: 15.2 µM for the first, 16.7 µM for the second.

With `O=C(c1ccccc1)C(Br)C(Br)c1cccc([N+](=O)[O-])c1` (stereo not drawn) the GI50 was 15.3 µM.

From PubChem BioAssay (NCI)
